Test results published in the supplement of paper PMC4967469.
By IC50 is meant the dose at which the fit gives 50% viability; a fit beyond the top or the lowest dose is shown as a bound at that dose. AUC, from the same fit, is the share of area under the viability curve across the 256-fold dose range: 1 means no effect, lower means more sensitive. For some of these results: A top dose marked as inferred was derived from the fitted curves, not read from the paper.

Key:
Assay in all cases: Viability of human cancer cell lines after 72 h of drug (GDSC screen)
XMD14-99 = compound: COc1cc(N2CCN(C)CC2)ccc1Nc1nc(N)c(C(=O)c2c(Cl)cccc2Cl)s1 [XMD14-99]; conditions: top dose 10.24 µM; top dose inferred
Protocol: (§1)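 Human cancer cell lines in 384-well plates, medium with 10% serum, drug for 72 h over a 256-fold dose range (nine 2-fold or five 4-fold steps up to the top dose). Adherent lines were fixed and stained with the nucleic acid dye Syto60, suspension lines read with resazurin; signal relative to control wells, capped at 0 and 100%. One two-parameter sigmoid per drug and line, fitted in a mixed model over all curves with the slope shared within a line.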

FH535 = compound: Cc1cc([N+](=O)[O-])ccc1NS(=O)(=O)c1cc(Cl)ccc1Cl [FH535]; conditions: top dose 32 µM; top dose inferred
Protocol: as §1

A-443654 = compound: Cc1n[nH]c2ccc(-c3cncc(OC[C@@H](N)Cc4c[nH]c5ccccc45)c3)cc12 [A-443654]; conditions: top dose 1.024 µM; top dose inferred
Protocol: as §1

Dasatinib = compound: Cc1nc(Nc2ncc(C(=O)Nc3c(C)cccc3Cl)s2)cc(N2CCN(CCO)CC2)n1 [Dasatinib]; conditions: top dose 1.28 µM
Protocol: as §1

AT-7519 = compound: O=C(NC1CCNCC1)c1n[nH]cc1NC(=O)c1c(Cl)cccc1Cl [AT-7519]; conditions: top dose 10.24 µM; top dose inferred
Protocol: as §1

Cell Line | AUC (XMD14-99) | IC50 (XMD14-99) [nM] | AUC (FH535) | IC50 (FH535) [nM] | AUC (A-443654) | IC50 (A-443654) [nM] | AUC (Dasatinib) | IC50 (Dasatinib) [nM] | AUC (AT-7519) | IC50 (AT-7519) [nM]
MOLM-13 (acute myeloid leukaemia, suspension) | 0.858 | 7560 | 0.685 | 6350 | 0.525 | 74.6 | 0.806 | 603 | 0.216 | 101
NB10 (neuroblastoma, adherent) | 0.962 | > 10200 | 0.792 | 14100 | 0.965 | > 1020 | 0.986 | > 1280 | 0.919 | > 10200
ARH-77 (myeloma, suspension) | 0.904 | > 10200 | 0.878 | 30400 | 0.742 | 305 | 0.802 | 604 | 0.396 | 335
OCUB-M (breast, adherent) | 0.988 | > 10200 | 0.333 | 736 | 0.352 | 26.5 | 0.867 | 906 | 0.458 | 499
CTV-1 (acute myeloid leukaemia, suspension) | 0.948 | > 10200 | 0.663 | 5110 | 0.714 | 223 | 0.014 | < 5 | 0.21 | 114
TUR (B-cell lymphoma, suspension) | 0.938 | > 10200 | 0.735 | 8820 | 0.984 | > 1020 | 0.987 | > 1280 | 0.275 | 156
KS-1 (glioma, adherent) | 0.962 | > 10200 | 0.728 | 10700 | 0.496 | 62.2 | 0.323 | 22.6 | 0.694 | 2600
KM-H2 (Hodgkin lymphoma, suspension) | 0.971 | > 10200 | 0.834 | 16600 | 0.862 | 669 | 0.988 | > 1280 | 0.62 | 1290
SU-DHL-16 (B-cell lymphoma, suspension) | 0.971 | > 10200 | 0.583 | 3180 | 0.575 | 97.1 | 0.108 | 8.12 | 0.452 | 489
LOXIMVI (melanoma, semi-adherent) | 0.989 | > 10200 | 0.787 | 12300 | 0.854 | 674 | 0.748 | 373 | 0.663 | 1720
CMK (acute myeloid leukaemia, suspension) | 0.836 | 5360 | 0.652 | 4920 | 0.752 | 295 | 0.991 | > 1280 | 0.662 | 1660
SUP-M2 (anaplastic large cell lymphoma, suspension) | 0.503 | 650 | 0.75 | 8400 | 0.704 | 204 | 0.987 | > 1280 | 0.095 | 51.9
HCE-4 (oesophagus, adherent) | 0.992 | > 10200 | 0.535 | 2460 | 0.575 | 99.7 | 0.644 | 187 | 0.913 | > 10200
SJSA-1 (bone, adherent) | 0.973 | > 10200 | 0.658 | 5830 | 0.784 | 494 | 0.923 | > 1280 | 0.581 | 1100
LU-165 (small cell lung carcinoma, suspension) | 0.988 | > 10200 | 0.882 | > 32000 | 0.828 | 742 | 0.987 | > 1280 | 0.737 | 3340
RPMI-8866 (chronic myeloid leukaemia, suspension) | 0.988 | > 10200 | 0.746 | 9500 | 0.832 | 590 | 0.977 | > 1280 | 0.426 | 408
TGBC24TKB (biliary tract, adherent) | 0.98 | > 10200 | 0.643 | 4840 | 0.728 | 270 | 0.373 | 36.6 | 0.95 | > 10200
COLO-668 (small cell lung carcinoma, adherent) | 0.971 | > 10200 | 0.632 | 4630 | 0.791 | 460 | 0.986 | > 1280 | 0.77 | 3880
DOHH-2 (B-cell lymphoma, suspension) |  |  | 0.69 | 6710 | 0.703 | 235 | 0.311 | 23.9 |  | 
RPMI-8226 (myeloma, suspension) | 0.951 | > 10200 | 0.718 | 7490 | 0.796 | 410 | 0.988 | > 1280 |  | 
IM-9 (myeloma, suspension) |  |  | 0.822 | 15400 | 0.98 | > 1020 | 0.992 | > 1280 |  | 
HCC1187 (breast, suspension) | 0.981 | > 10200 | 0.783 | 12800 | 0.87 | 877 | 0.931 | > 1280 |  | 
LB647-SCLC (small cell lung carcinoma, semi-adherent) |  |  | 0.806 | 18700 | 0.673 | 207 | 0.978 | > 1280 | 0.718 | 2880
KP-N-RT-BM-1 (neuroblastoma, semi-adherent) |  |  |  |  | 0.784 | 584 | 0.975 | > 1280 |  | 
NK-92MI (lymphoid neoplasm, suspension) |  |  | 0.689 | 6490 | 0.886 | 996 | 0.525 | 93.3 | 0.926 | > 10200
SR (lymphoid neoplasm, suspension) | 0.537 | 797 | 0.663 | 5380 | 0.679 | 190 | 0.963 | > 1280 |  | 
NCI-H446 (small cell lung carcinoma, semi-adherent) | 0.967 | > 10200 | 0.902 | > 32000 | 0.707 | 258 | 0.857 | 1160 |  | 
